Laboratory results from PubChem BioAssay AID1963576 (National Center for Advancing Translational Sciences (NCATS), 2024).
The whole screen tested about 46,000 compounds, of which about 60 (0.1%) were called active. About 3% were inconclusive and are not listed. Calls come from the whole dose curve; as a rule, active = well fitted inhibition curve with a large enough effect; inconclusive = small, poorly fitted or top-dose-only effect; inactive = no such curve, though single readings can be large or run the other way. Some of the results follow.

Assay: Primary qHTS assay for Inhibitors of ovarian cancer metastasis using an organotypic tumor microenvironment (TME) model.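 For activity change, negative = inhibition: plate controls were DMSO wells for no effect and tomatine positive control wells for full effect.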 Note: nearly all actives have a fitted effect of over 65% in size.
Conditions: SKOV3ip1-GFP adhesion/invasion on 3D omental model, fluorescence; series mostly up to 45.8 µM; activity change, negative = inhibition: at the top concentration
In short: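 A 3D layer of primary human omental fibroblasts, mesothelial cells, fibronectin and collagen I, grown 48 hr, received SKOV3ip1-GFP cells in serum-free medium plus compounds at 0.36-46 umol/L. After 2 hr RT and 16 hr 37 C, fixed adherent GFP cells were counted; normalized to DMSO and tomatine.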

Activity change, negative = inhibition, inactive:
O=C(Cn1cnc2ccccc2c1=O)NCCC(=O)Nc1ccc(F)cc1 13%
COc1ccc(N(CC(=O)N2CCN(c3ccc(F)cc3)CC2)S(=O)(=O)c2c(C)noc2C)cc1 6.98%
CCOc1cccc(C(=O)Nc2nc3c(s2)CC(C(C)(C)C)CC3)c1 (stereo unspecified) -6.48%
COc1cc(OC)cc(-c2nc3n(n2)C(c2ccccc2)C(C(N)=O)=C(C)N3)c1 (stereo unspecified) -11.9%
Cc1ccc(/C=C/C(=O)Nc2ccccc2C(N)=O)o1 0.693%
COc1cccc(CNC(=O)c2cc(Sc3cccc(Cl)c3)nc3ccccc23)c1 19.6%
O=C(NCc1cccc(F)c1)c1ccc(NC(=O)c2nsc3ccccc23)cc1 -0.532%
COc1ccc(-c2c(C)c3ccc(O)c(CN4CCN(CCO)CC4)c3oc2=O)cc1OC 0.82%
Cc1ccc(CCNC(=O)c2c(C)oc3ncn(CC(C)C)c(=O)c23)cc1 -10.8%
COc1cc(Cl)c(C)cc1NC(=O)CC(c1ccc(F)cc1)N1Cc2ccccc2C1=O (stereo unspecified) 5.58%
CCCCS(=O)(=O)c1oc(-c2ccc(F)cc2)nc1S(=O)(=O)c1ccc(C)cc1 -8.49%
Cc1sc(-c2cc3c([nH]c2=O)CC(c2ccccc2)CC3=O)nc1-c1ccc(Cl)cc1 (stereo unspecified) -14.8%
COc1cccc(NC(=O)CC2Nc3cc(C)c(C)cc3NC2=O)c1 (stereo unspecified) 31.7%
COc1ccc(OC)c(S(=O)(=O)Nc2cccc(-c3ccc(N4CCCCC4)nn3)c2)c1 -2.98%
CC(C)(C)c1ccc(C(=O)Nc2onc3c2CCCC3)cc1 -4.25%
CCc1ccc(S(=O)(=O)Nc2cccc(-c3ccc(N4CCOCC4)nn3)c2)cc1 -11.3%
CC(C)(C)c1ccc(C(=O)NCC(c2ccc(Cl)cc2)N2CCOCC2)cc1 (stereo unspecified) -22.7%
CCOc1ccc(NS(=O)(=O)c2ccc3c4c(cccc24)C(=O)N3)cc1 -9.81%
Cc1ccc(CNC(=O)CC2Oc3ccc(Cl)cc3NC2=O)cc1 (stereo unspecified) 15.9%
Cc1cccc(NC(=O)CCS(=O)(=O)c2cc(Br)cc3c2N(C(=O)C2CC2)CC3)c1 6.41%
CCOc1cccc2cc(S(=O)(=O)c3ccccc3F)c(=O)oc12 2.51%
Cc1ccc(CO)cc1Nc1ncnc2onc(-c3ccc(F)cc3)c12 -8.74%
CC(=O)c1cccc(NC(=O)CSc2nc3ccccc3nc2Cc2ccc(F)cc2)c1 -5.85%
CCc1ccc(NC(=O)CN(c2cc(C)cc(C)c2)S(=O)(=O)c2c(C)[nH]c(=O)[nH]c2=O)cc1 4.39%
CCc1cccc(NC(=O)C(Cc2ccccc2)n2cccc2)c1 (stereo unspecified) -14.5%
CCOc1ccc(CNC(=O)c2ccc3c(c2)nc2n3CCOC2)cc1OC 35%
COc1ccc(N2CC(NC(=O)c3ccc(S(=O)(=O)N4CCCCC4)cc3)CC2=O)cc1 (stereo unspecified) -6.77%
CCN(CC)C(=O)CSc1nc(-c2ccc(C)cc2)nc2c1Cc1c(CO)cnc(C)c1O2 0.355%
COc1cccc(-c2nc(SCC(=O)NC3CCCC3)c(-c3ccc(C)cc3)[nH]2)c1 -5.23%
CC1=C(c2ccc(C(C)C)cc2)S(=O)(=O)N=C1N1CCC(C(=O)NCCc2ccco2)CC1 -3.46%
Cc1ccc(CNC(=O)c2ccc3nc(SCc4ccc(F)cc4)[nH]c3c2)cc1 -4.4%
COc1ccccc1C(=O)Nc1ccc2oc(-c3cccc4c(Br)cccc34)nc2c1 -20.2%
CCN(c1ccccc1)S(=O)(=O)c1c(-c2ccc(C)cc2)csc1C(=O)OC -9.6%
COc1ccc2c(c1)cc1c(=O)n(CC(=O)NC3CC3)nc(C)n12 -8.09%
COCCNc1nc(NCc2cccc(Cl)c2)c2cnn(C)c2n1 -4.46%
COc1ccc(/C=C/C(=O)Nc2ccc3nc(N4CCC(C)CC4)cc(C)c3c2)cc1 5.67%
CCC1Oc2ccc(Cl)cc2N(CC(=O)NCCc2ccc(Cl)cc2)C1=O (stereo unspecified) 10.5%
COc1ccccc1CNC(=O)CCn1c(=O)c2cccn2c2cccnc21 -5.88%
C=Cc1ccc(Cn2c(C)c(CNCc3ccccc3C)c(C(=O)O)c2C)cc1 0.498%
O=C(Cc1csc2nc(-c3ccc(F)cc3)cn12)NCc1ccccc1 -30%
O=[N+]([O-])c1cc(-c2nc(-c3ccccc3)no2)ccc1NC1CCCCC1 7.64%
O=C(Nc1nnc(S(=O)(=O)N2CCCCC2)s1)c1ccccc1Br 1.03%
Cc1ccc(NC(=O)c2ccc3c(O)c(S(=O)(=O)c4ccccc4)c(=O)[nH]c3c2)cc1Cl 5.79%
COc1ccc(-c2nc3ccccc3s2)cc1NC(=O)c1ccc(F)cc1 0.976%
Cc1cccc(NC(c2ccccc2F)c2ccc3ccc(C)nc3c2O)n1 (stereo unspecified) -13%
Cc1ccc(OCC(=O)Nc2ccccc2OCc2cc(=O)n3ccccc3n2)cc1C -8.65%
COC(=O)c1ccccc1NC(=O)C1CCN(C(=O)N2CC(C)Oc3ccccc32)CC1 (stereo unspecified) 3.09%
N[C@@H](C(=O)N[C@@H]1C(=O)N2C(C(=O)O)=C(Cl)CS[C@H]12)c1ccccc1 -3.08%
O=C(COc1ccc(Cl)cc1)OCc1cc(=O)n2nc(C3CC3)sc2n1 -12.5%
O=C(Nc1cccc(F)c1)c1ccc2c(c1)N(Cc1ccccc1)C(=O)c1ccccc1S2(=O)=O 31.4%
CC(C)(C)CC(=O)NCC(c1ccc2c(c1)OCO2)N1CCOCC1 (stereo unspecified) -5.08%
Cc1nc2cccnc2n1-c1cccc(C(=O)NCCN(C)C)c1 -1.93%
CC(=O)Nc1ccc2nc3c(=O)n(C)c(=O)n(C)c3nc2c1C -3.85%
CCOC(=O)Cn1c(=O)oc2cc(S(=O)(=O)N3CCN(c4cccc(C)c4)C(C)C3)ccc21 (stereo unspecified) -2.76%
COc1ccccc1CNC(=O)C(C)n1c(=O)cc(-c2ccccc2)c2c(C)nn(C)c21 (stereo unspecified) 1.41%
COc1ccc(Cl)cc1NC(=O)N1CCN(Cc2cc(=O)n3nc(-c4ccccc4)sc3n2)CC1 -1.71%
O=C1CCSC2(C(=O)N(Cc3ccc(F)cc3)c3ccccc32)N1c1ccc(Cl)cc1 (stereo unspecified) 7.18%
N#Cc1nc(-c2ccc(COc3ccccc3)o2)oc1N1CCN(c2ccccc2)CC1 -4.96%
COCCN(Cc1ccco1)C(=O)c1cc2c(=O)[nH]c3ccc(C)cc3c2s1 -0.75%
CCOC(=O)c1c(S(=O)(=O)N2CCCC(C(=O)NCc3cccc(C)c3)C2)c(C)n(C)c1C (stereo unspecified) 15.4%
CCOC(=O)c1cnn(-c2ccc(C(=O)Nc3ccc(C(C)=O)cc3)cc2)c1N -12.2%
NC1=NC(c2cccc(Cl)c2)n2c(nc3ccccc32)N1 (stereo unspecified) -6.14%
CCCS(=O)(=O)Nc1cccc(-c2cn3ccc(C)cc3n2)c1 -4.69%
CCOc1c(Br)cc(C2CC(=O)Nc3cc4c(cc32)OCO4)cc1OC (stereo unspecified) -8.91%
COc1ccc(C2C=C(c3ccc(Cl)cc3)Nc3nc(-c4ccc(Cl)cc4)nn32)cc1 (stereo unspecified) -5.93%
O=C(CSc1n[nH]c(-c2ccc(F)cc2)n1)NCc1ccccc1Cl 0.418%
COc1ccc(CCNC(=O)c2cccc(Nc3nc4ccccc4nc3-n3nc(C)cc3C)c2)cc1OC -7.77%
Cc1ccc(NC(=O)c2oc3ccc4c(c3c2C)C(=O)CC(C)(C)O4)c(C)c1 -15.2%
O=C(COc1ccccc1)NCC(c1ccc(Cl)cc1)N1CCOCC1 (stereo unspecified) 2.82%
Cc1ccc(-c2noc(-c3ccc(N4CCN(C)CC4)c([N+](=O)[O-])c3)n2)cc1 -12%
COC(=O)c1ccc(NC(=O)CCCC(=O)OCC(=O)c2ccc(Cl)cc2)cc1 -0.74%
COc1ccc(C)cc1NS(=O)(=O)c1c(C(=O)N2CCC(C)CC2)c(C)n(C)c1C 7.72%
COc1ccc(N2CCN(S(=O)(=O)c3ccc(-c4ccno4)cc3OC)CC2)cc1 6.53%

outcome, inactive:
O=C(NCc1ccco1)c1ccc2c(c1)N(Cc1ccc(F)cc1)C(=O)c1ccccc1S2(=O)=O
CC(=O)N1c2ccc(S(=O)(=O)Nc3ccc(Cl)cc3C)cc2CC1C (stereo unspecified)
CC(C)(C)OC(=O)N1CCC(c2c(C(=O)NCCc3ccccc3)cnn2-c2ccc(F)cc2F)CC1
Cn1c(=O)oc2cc(S(=O)(=O)N3CCC(C(=O)N4CCN(c5ccccc5F)CC4)CC3)ccc21
CCOC(=O)c1c(NC(=O)COc2cccc(C)c2C)sc2c1CCC(CC)C2 (stereo unspecified)
Cc1c(C(=O)N2CCOCC2)oc2c1-c1nn(CC(=O)NCc3cccc(Cl)c3)cc1CC2
Cc1ccc(C)c(N2CCN(C(=O)CSCc3ccccc3Cl)CC2)c1
CCS(=O)(=O)N1CC(=O)N(c2ccc(Cl)cc2)C(C)(C(=O)NC2CCCCC2)C1 (stereo unspecified)
COc1ccc(/C=C/C(=O)Nc2nc(-c3cccs3)ns2)cc1OC
CC(=O)Nc1ccccc1-c1nc2ccccc2n(CC(=O)Nc2cccc(C(F)(F)F)c2)c1=O
CCCOc1cccc(C(=O)Nc2cc(-c3ccccc3)no2)c1
CC1=C(C(=O)Nc2ccc(F)cc2F)C2(CCN(C(C)C)CC2)OC1=O
Cc1ccc(C(=O)Nc2c(C)nc3ccccn3c2=O)cc1C
CCCN1Cc2cccc(C(=O)Nc3cccc(C(=O)OCC)c3)c2C1=O
COc1ccc(C2c3cc(OC)c(OC)cc3CC(=O)N2c2ccc(C)c(F)c2)cc1 (stereo unspecified)
CCN(C(=O)CN1C(=O)COc2ccc(S(=O)(=O)N3CCOCC3)cc21)c1ccc(OC)cc1
Cc1ccc(-c2nnc(Nc3ccc(C(=O)N(C)C)cc3)c3ccccc23)cc1S(=O)(=O)N(C)C
COc1ccc(C(=O)NCC(c2ccc(N(C)C)cc2)N2CCc3ccccc32)cc1OC (stereo unspecified)
CC(C)c1nn2c(=O)cc(COC(=O)c3cccs3)nc2s1
Cc1cccc(OC(=O)c2cc(-c3ccc(C)c(C)c3)on2)c1
CCc1ccc(CNC(=O)c2cnc3sc(N4CCOCC4)nn3c2=O)cc1
COc1cc2cc(CNc3ccccc3)c(=O)n(CC(=O)Nc3ccc(C)c(Cl)c3)c2cc1OC
CCOc1ccc2c(c1)c(=O)c(S(=O)(=O)c1ccc(F)cc1)cn2CC(=O)Nc1ccccc1C
